# The campaign covered roughly 310,000 compounds. About 2,200 (0.71%) showed an effect of 50% or more. Effects have a minus sign here. The list shows a part of the results.
# Target: human ether-à-go-go-related gene (hERG) potassium channel (human, UniProt Q12809)
# Experiment: primary screen, population patch clamp on CHO cells stably expressing hERG
# Chain of human ether-à-go-go-related gene (hERG) potassium channel (Q12809 whole entry, looked up): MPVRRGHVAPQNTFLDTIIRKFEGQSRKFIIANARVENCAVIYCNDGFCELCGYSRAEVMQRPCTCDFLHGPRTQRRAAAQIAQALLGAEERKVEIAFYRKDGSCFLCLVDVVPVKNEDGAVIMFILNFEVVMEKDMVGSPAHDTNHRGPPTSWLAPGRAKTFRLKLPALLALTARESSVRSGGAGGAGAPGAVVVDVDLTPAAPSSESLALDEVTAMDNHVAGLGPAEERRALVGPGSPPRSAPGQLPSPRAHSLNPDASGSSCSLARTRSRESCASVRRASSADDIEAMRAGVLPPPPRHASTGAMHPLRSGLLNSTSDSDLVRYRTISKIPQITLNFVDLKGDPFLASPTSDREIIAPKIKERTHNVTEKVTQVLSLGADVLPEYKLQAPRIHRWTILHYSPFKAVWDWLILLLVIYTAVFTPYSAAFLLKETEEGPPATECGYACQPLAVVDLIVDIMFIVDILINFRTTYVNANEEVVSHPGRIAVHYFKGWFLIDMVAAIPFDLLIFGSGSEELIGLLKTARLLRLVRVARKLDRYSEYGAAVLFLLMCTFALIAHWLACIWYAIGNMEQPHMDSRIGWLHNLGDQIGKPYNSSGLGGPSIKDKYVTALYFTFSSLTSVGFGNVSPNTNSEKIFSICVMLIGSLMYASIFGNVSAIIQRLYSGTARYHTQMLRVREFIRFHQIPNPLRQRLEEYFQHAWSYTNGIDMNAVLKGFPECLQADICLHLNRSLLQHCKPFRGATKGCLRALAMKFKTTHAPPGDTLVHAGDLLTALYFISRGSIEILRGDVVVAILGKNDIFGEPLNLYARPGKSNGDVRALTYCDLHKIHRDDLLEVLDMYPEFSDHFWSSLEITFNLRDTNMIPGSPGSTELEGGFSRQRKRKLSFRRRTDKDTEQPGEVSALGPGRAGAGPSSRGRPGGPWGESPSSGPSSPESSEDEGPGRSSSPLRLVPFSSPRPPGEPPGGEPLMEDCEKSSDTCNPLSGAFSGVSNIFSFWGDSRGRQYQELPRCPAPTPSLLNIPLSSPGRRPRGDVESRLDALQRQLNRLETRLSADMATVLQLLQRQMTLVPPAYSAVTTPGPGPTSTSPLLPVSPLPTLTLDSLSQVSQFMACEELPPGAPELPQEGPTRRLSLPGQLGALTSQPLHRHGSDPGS
row,SMILES,"hERG current change (%, negative = inhibition) at 1uM [%]"
1,CC(OC(=O)c1ccccc1NCCO)C(=O)NCC(=O)Nc1ccc(F)c(F)c1F (stereo not shown),8.93
2,COc1ccc(Cl)cc1NC(=O)COc1cccc(-n2cnnn2)c1,11.3
3,Cc1cccc(S(=O)(=O)CC(=O)Nc2nc(-c3ccccc3)cs2)c1,3.09
4,CC(C)(CO)Nc1ccc([N+](=O)[O-])cc1[N+](=O)[O-],-4.99
5,Cn1c(Cn2nnc3ccccc32)nnc1SCC(=O)N1c2ccccc2Sc2ccccc21,-1.26
6,CCNc1ccc(C2(O)C(=O)c3ccccc3C2=O)cc1,8.01
7,O=C1CCC/C(=N\NC(=O)c2ccc(CSc3cccc4cccnc34)cc2)C1,14.8
8,CCN(C(=O)c1cc(S(=O)(=O)N2CCCCC2)c[nH]1)c1ccc(OC)cc1,6.02
9,NNC(=O)c1nc(Cl)c(Cl)c(N)c1Cl,11.6
10,O=C(COc1ccccc1[N+](=O)[O-])OCC(=O)N1CCC(Cc2ccccc2)CC1,14.2
11,N#Cc1c(N2CCSCC2)nsc1-c1ccccc1Cl,10.3
12,O=C(c1cccc(F)c1)N(Cc1nc2ccccc2c(=O)[nH]1)C1CCCC1,5.34
13,CC(C)(C)C(=O)COc1ccccc1[N+](=O)[O-],11.1
14,COc1nc(OC)nc(Oc2ccc([N+](=O)[O-])cc2Cl)n1,13.7
15,O=C1Nc2ccccc2/C1=C\c1cccn1-c1ccc(OC(F)(F)F)cc1,10.1
16,Cc1nnc(SCC(=O)N2CCc3ccccc3C2)n1-c1ccccc1,-7.02
17,O=c1[nH]c(=S)n(Cc2ccc(F)cc2)c(O)c1C=NCc1ccc2c(c1)OCO2,17.2
18,O=c1[nH]c(=O)n(-c2cccc3ccccc23)c(O)c1/C=N/N1CCCCC1c1cccnc1 (stereo not shown),15
19,COc1cccc(CSc2nnc(CSc3nc4nc(C)cc(C)n4n3)s2)c1,-6.11
20,Cc1ccc(C(=O)NNC(=O)c2csc(N3CCOCC3)n2)s1,-4.52
21,C[C@H]1NC(=O)[C@@]2(C)[C@@H](c3ccccc3)[C@H]3COc4ccccc4[C@H]3N2C1=O,9.35
22,CCC(C)(C)NC(=O)C(c1ccc(C)cc1)N(CC1CCCO1)C(=O)CNC(=O)c1cccs1 (stereo not shown),9.18
23,Cn1c(SCC(=O)NCCc2ccc(S(N)(=O)=O)cc2)nc2ccccc2c1=O,6.42
24,CCCn1c(SCC(=O)NC2CCCCC2)nnc1-c1ccco1,7
25,CCn1c(SCC(=O)Nc2cc(C(C)(C)C)nn2-c2ccccc2)nnc1-c1cccs1,0.593
26,Cn1c(CCNC(=O)C2CCCCC2)nc2cc([N+](=O)[O-])ccc21,-23
27,O=c1[nH]c(-c2ccccc2O)nc2c1CCCC2,10.7
28,O=C(COC(=O)c1ccc(O)cc1)Nc1cc(S(=O)(=O)N2CCOCC2)ccc1Cl,5.85

row,SMILES,"hERG current change (%, negative = inhibition) at 1uM [%]"
1,CC1CCCCN1S(=O)(=O)c1ccccc1[N+](=O)[O-] (stereo not shown),22.5
2,COc1ccc(CCNC(=O)CNC(=O)c2nn(-c3ccc(OC)c(OC)c3)c(=O)c3ccccc23)cc1OC,8.54
3,O=C(c1cc(-c2cccs2)nc2ccccc12)N1CCN(S(=O)(=O)c2ccccc2)CC1,-9.43
4,COc1ccc(CC(=O)OCC(=O)NCc2ccc(Cl)cc2)cc1,16.4
5,COc1ccc(CCN2CC(C(=O)NCc3nc4ccccc4n3C)CCC2=O)cc1 (stereo not shown),5.67
6,COCCCNC1CS(=O)(=O)CC1O.Cl (stereo not shown),20.5
7,CC(C)[C@H](NC(=O)N1c2ccccc2NC(=O)[C@@H]1C(C)C)C(=O)N[C@@H](Cc1ccccc1)C(=O)O,14.1
8,CCOC(=O)c1ccccc1NC(=O)Cc1ccccc1OC,5.07
9,CN1CCN(S(=O)(=O)c2ccc(NC(=O)c3csc4ccccc34)cc2)CC1,-2.14
10,CN(c1ccccc1)S(=O)(=O)c1cccc(NC(=O)C2CC(=O)N(Cc3ccccc3)C2)c1 (stereo not shown),-3.33
11,Cc1ccc(-n2ncc3c(SCC(=O)NNC(=O)c4ccco4)ncnc32)cc1,12.1
12,COCCNc1nnc(SCC(=O)NNC(=O)c2ccccc2)s1,16.3
13,Cc1ccc(C(=O)NCCS(=O)(=O)N2CCN(c3ccccc3F)CC2)cc1[N+](=O)[O-],20
14,C/C(CC(=O)NCc1ccc(F)cc1)=N\NC(N)=S,11.6
15,OC(COc1ccc2c(c1)OCO2)CN1CCCCC1 (stereo not shown),13.8
16,Cc1ccc(S(=O)(=O)N2CCCC2CO)cc1 (stereo not shown),9.64
17,O=C(NCc1nnc(SCC(=O)N2CCc3ccccc32)o1)c1cccs1,0.714
18,CC1CCCN(C(=O)c2cc(-c3ccco3)nc3ccccc23)C1 (stereo not shown),1.33
19,COc1cccc(CNc2ccc(C(=O)O)cc2)c1OCc1ccccc1,4.32
20,CCOC(=O)C(NC(=O)NCc1cccc(C(F)(F)F)c1)(OCC)C(F)(F)F (stereo not shown),17.4
21,CCc1cc2cc(C)cc(C)c2nc1Cl,13.4
22,C1CCN(c2nc3nonc3nc2N2CCCC2)C1,14.4
23,O=c1[nH][nH]cc1C=Nc1ccccc1O,14.5
24,COc1ccc(Nc2ncc(C(=O)N3CCN(c4ccc(F)cc4)CC3)c3ccccc23)cc1,9.89
25,Cc1cc(NC(=O)COc2cccc([N+](=O)[O-])c2)no1,13.6
26,O=C(CN(Cc1cccs1)C(=O)CNS(=O)(=O)c1ccccc1)NC1CCCC1,8.05
27,O=S(=O)(c1ccc2c(c1)C(O)c1ccccc1CC2)C(F)(F)F (stereo not shown),7.39

# — paper PMC4336329 (PLoS ONE, 2015)
